Measurements as given in article PMC9911399, “Two distinct binding modes provide the RNA-binding protein RbFox with extraordinary sequence specificity”.
Numbering of substitutions follows the chain as printed; changes in the protein carry UniProt numbers. The list shows a part of the results.

T1: RBFOX1 RRM RbFoxmut (Fox-RRM*) (Homo sapiens, UniProt Q9NWB1 109-208, R118D;E147R;N151S;E152T)
T1 sequence: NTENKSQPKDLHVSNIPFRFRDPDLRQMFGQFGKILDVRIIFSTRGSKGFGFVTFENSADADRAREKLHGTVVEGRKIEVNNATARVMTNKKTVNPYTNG

B1: AGAGGAA (DNA:RNA)
RNA: GGGAGACCGGAAUUCAGAUUGUCCAGAGGAAUUAAAUCCCGUCGUAGCCACCA
DNA 1: CAATCTGAATTCCGGTCTCCC
DNA 2: TGGTGGCTACGACGGGATT
B2: UCGGUCC (DNA:RNA)
RNA: B1 RNA with A25U, G26C, A27G, G29U, A30C, A31C
DNA 1: CAATCTGAATTCCGGTCTCCC
DNA 2: TGGTGGCTACGACGGGATT
B3: ACCACAU (DNA:RNA)
RNA: B1 RNA with G26C, A27C, G28A, G29C, A31U
DNA 1: CAATCTGAATTCCGGTCTCCC
DNA 2: TGGTGGCTACGACGGGATT
B4: ACUUAUC (DNA:RNA)
RNA: B1 RNA with G26C, A27U, G28U, G29A, A30U, A31C
DNA 1: CAATCTGAATTCCGGTCTCCC
DNA 2: TGGTGGCTACGACGGGATT
B5: GUUUGUC (DNA:RNA)
RNA: B1 RNA with A25G, G26U, A27U, G28U, A30U, A31C
DNA 1: CAATCTGAATTCCGGTCTCCC
DNA 2: TGGTGGCTACGACGGGATT
B6: CUCAGUG (DNA:RNA)
RNA: B1 RNA with A25C, G26U, A27C, G28A, A30U, A31G
DNA 1: CAATCTGAATTCCGGTCTCCC
DNA 2: TGGTGGCTACGACGGGATT
B7: UACCGUU (DNA:RNA)
RNA: B1 RNA with A25U, G26A, A27C, G28C, A30U, A31U
DNA 1: CAATCTGAATTCCGGTCTCCC
DNA 2: TGGTGGCTACGACGGGATT
B8: GGUGUAG (DNA:RNA)
RNA: B1 RNA with A25G, A27U, G29U, A31G
DNA 1: CAATCTGAATTCCGGTCTCCC
DNA 2: TGGTGGCTACGACGGGATT
B9: AAGAUAG (DNA:RNA)
RNA: B1 RNA with G26A, A27G, G28A, G29U, A31G
DNA 1: CAATCTGAATTCCGGTCTCCC
DNA 2: TGGTGGCTACGACGGGATT
B10: CGCUAGG (DNA:RNA)
RNA: B1 RNA with A25C, A27C, G28U, G29A, A30G, A31G
DNA 1: CAATCTGAATTCCGGTCTCCC
DNA 2: TGGTGGCTACGACGGGATT
B11: GGGAAUU (DNA:RNA)
RNA: B1 RNA with A25G, A27G, G28A, G29A, A30U, A31U
DNA 1: CAATCTGAATTCCGGTCTCCC
DNA 2: TGGTGGCTACGACGGGATT
B12: UUUUAGA (DNA:RNA)
RNA: B1 RNA with A25U, G26U, A27U, G28U, G29A, A30G
DNA 1: CAATCTGAATTCCGGTCTCCC
DNA 2: TGGTGGCTACGACGGGATT
B13: GAUCCUG (DNA:RNA)
RNA: GGGAGACCGGAAUUCAGAUUGUCCGAUCCUGUUAAAUCCCGUCGUAGCCACCA
DNA 1: CAATCTGAATTCCGGTCTCCC
DNA 2: TGGTGGCTACGACGGGATT
B14: UUGCUGG (DNA:RNA)
RNA: B13 RNA with G25U, A26U, U27G, C29U, U30G
DNA 1: CAATCTGAATTCCGGTCTCCC
DNA 2: TGGTGGCTACGACGGGATT
B15: AGUGCAA (DNA:RNA)
RNA: B1 RNA with A27U, G29C
DNA 1: CAATCTGAATTCCGGTCTCCC
DNA 2: TGGTGGCTACGACGGGATT
B16: AGGACAG (DNA:RNA)
RNA: B1 RNA with A27G, G28A, G29C, A31G
DNA 1: CAATCTGAATTCCGGTCTCCC
DNA 2: TGGTGGCTACGACGGGATT
B17: AUGGCAG (DNA:RNA)
RNA: B1 RNA with G26U, A27G, G29C, A31G
DNA 1: CAATCTGAATTCCGGTCTCCC
DNA 2: TGGTGGCTACGACGGGATT
B18: CAAAAUC (DNA:RNA)
RNA: B13 RNA with G25C, U27A, C28A, C29A, G31C
DNA 1: CAATCTGAATTCCGGTCTCCC
DNA 2: TGGTGGCTACGACGGGATT
B19: GAGCUAU (DNA:RNA)
RNA: B13 RNA with U27G, C29U, U30A, G31U
DNA 1: CAATCTGAATTCCGGTCTCCC
DNA 2: TGGTGGCTACGACGGGATT
B20: GCACCGC (DNA:RNA)
RNA: B13 RNA with A26C, U27A, U30G, G31C
DNA 1: CAATCTGAATTCCGGTCTCCC
DNA 2: TGGTGGCTACGACGGGATT
B21: CCGCGGG (DNA:RNA)
RNA: B13 RNA with G25C, A26C, U27G, C29G, U30G
DNA 1: CAATCTGAATTCCGGTCTCCC
DNA 2: TGGTGGCTACGACGGGATT
B22: UGAGGGA (DNA:RNA)
RNA: B1 RNA with A25U, A30G
DNA 1: CAATCTGAATTCCGGTCTCCC
DNA 2: TGGTGGCTACGACGGGATT
B23: CUCUCAG (DNA:RNA)
RNA: B13 RNA with G25C, A26U, U27C, C28U, U30A
DNA 1: CAATCTGAATTCCGGTCTCCC
DNA 2: TGGTGGCTACGACGGGATT
B24: UUGUAUC (DNA:RNA)
RNA: B13 RNA with G25U, A26U, U27G, C28U, C29A, G31C
DNA 1: CAATCTGAATTCCGGTCTCCC
DNA 2: TGGTGGCTACGACGGGATT
B25: GUAACGC (DNA:RNA)
RNA: B13 RNA with A26U, U27A, C28A, U30G, G31C
DNA 1: CAATCTGAATTCCGGTCTCCC
DNA 2: TGGTGGCTACGACGGGATT
B26: AUGGAUC (DNA:RNA)
RNA: B1 RNA with G26U, A27G, G29A, A30U, A31C
DNA 1: CAATCTGAATTCCGGTCTCCC
DNA 2: TGGTGGCTACGACGGGATT
B27: AGGACAU (DNA:RNA)
RNA: B1 RNA with A27G, G28A, G29C, A31U
DNA 1: CAATCTGAATTCCGGTCTCCC
DNA 2: TGGTGGCTACGACGGGATT
B28: AUUCUUC (DNA:RNA)
RNA: B13 RNA with G25A, A26U, C29U, G31C
DNA 1: CAATCTGAATTCCGGTCTCCC
DNA 2: TGGTGGCTACGACGGGATT
B29: CUGGGAA (DNA:RNA)
RNA: B1 RNA with A25C, G26U, A27G
DNA 1: CAATCTGAATTCCGGTCTCCC
DNA 2: TGGTGGCTACGACGGGATT
B30: AUAUUCU (DNA:RNA)
RNA: B1 RNA with G26U, G28U, G29U, A30C, A31U
DNA 1: CAATCTGAATTCCGGTCTCCC
DNA 2: TGGTGGCTACGACGGGATT
B31: AACUGUG (DNA:RNA)
RNA: B13 RNA with G25A, U27C, C28U, C29G
DNA 1: CAATCTGAATTCCGGTCTCCC
DNA 2: TGGTGGCTACGACGGGATT

What follows are binders tested against T1, RBFOX1 RRM RbFoxmut (Fox-RRM*) (assay: EMSA; HiTS-Eq, 1 nM pool, 10 min; buffer printed only for the single-RNA assays: 10 mM Tris pH 7.5, 150 mM NaCl, 3.4 mM EDTA, 0.001% NP-40, 30 C). Details: tags: His6 N-terminal (pET28a); label: 5' 32P.
Summary of the method: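 Purified RbFox RRM, wild type or mutant, was incubated for 10 min in 50 µL with 1 nM of a 5′-radiolabelled RNA pool carrying 7 randomized nucleotides, whose flanks were annealed to DNA oligonucleotides, over a series of increasing protein concentrations. Unbound RNA was resolved on 8% native PAGE, cut out, reverse-transcribed, barcoded by PCR and sequenced on an Illumina HiSeq 2500. Relative association constants were derived from changes in read counts for each RNA species versus the control reaction and normalised to the cognate motif.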
For B1, the binding signal was 0.108 KA relative to UGCAUGU.
For B2, the binding signal was 0.0845 KA relative to UGCAUGU.
B3 was tested, and the binding signal was 0.107 KA relative to UGCAUGU.
B4 was tested, and the binding signal was 0.102 KA relative to UGCAUGU.
B5 was tested, and the binding signal was 0.305 KA relative to UGCAUGU.
With B6 the binding signal was 0.137 KA relative to UGCAUGU.
For B7, the binding signal was 0.114 KA relative to UGCAUGU.
With B8 the binding signal was 0.11 KA relative to UGCAUGU.
B9 was tested, and the binding signal was 0.0873 KA relative to UGCAUGU.
With B10 the binding signal was 0.103 KA relative to UGCAUGU.
In the case of B11, the binding signal is reported as 0.0897 KA relative to UGCAUGU.
For B12, the binding signal was 0.1 KA relative to UGCAUGU.
With B13 the binding signal was 0.0782 KA relative to UGCAUGU.
In the case of B14, the binding signal is reported as 0.128 KA relative to UGCAUGU.
With B15 the binding signal was 0.0655 KA relative to UGCAUGU.
With B16 the binding signal was 0.0616 KA relative to UGCAUGU.
For B17, the binding signal was 0.119 KA relative to UGCAUGU.
For B18, the binding signal was 0.0517 KA relative to UGCAUGU.
With B19 the binding signal was 0.0915 KA relative to UGCAUGU.
For B20, the binding signal was 0.139 KA relative to UGCAUGU.
B21 was tested, and the binding signal was 0.07 KA relative to UGCAUGU.
For B22, the binding signal was 0.0508 KA relative to UGCAUGU.
With B23 the binding signal was 0.107 KA relative to UGCAUGU.
B24 was tested, and the binding signal was 0.523 KA relative to UGCAUGU.
For B25, the binding signal was 0.0798 KA relative to UGCAUGU.
For B26, the binding signal was 0.298 KA relative to UGCAUGU.
In the case of B27, the binding signal is reported as 0.0571 KA relative to UGCAUGU.
For B28, the binding signal was 0.0673 KA relative to UGCAUGU.
B29 was tested, and the binding signal was 0.12 KA relative to UGCAUGU.
For B30, the binding signal was 0.0971 KA relative to UGCAUGU.
In the case of B31, the binding signal is reported as 0.113 KA relative to UGCAUGU.
